Results from the supplement of paper PMC4967469.

Legend:
Assay in all cases: Viability of human cancer cell lines after 72 h of drug (GDSC screen)
BMX-IN-1 (QL-XII-61) = compound: C=CC(=O)Nc1cc(-n2c(=O)ccc3cnc4ccc(-c5ccc(NS(C)(=O)=O)cc5)cc4c32)ccc1C [BMX-IN-1 (QL-XII-61)]; details: top dose 10 µM; top dose inferred
Description: (§1)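 Human cancer cell lines in 384-well plates, medium with 10% serum, drug for 72 h over a 256-fold dose range (nine 2-fold or five 4-fold steps up to the top dose). Adherent lines were fixed and stained with the nucleic acid dye Syto60, suspension lines read with resazurin; signal relative to control wells, capped at 0 and 100%. One two-parameter sigmoid per drug and line, fitted in a mixed model over all curves with the slope shared within a line.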

17-AAG = compound: C=CCNC1=C2C[C@@H](C)C[C@H](OC)[C@H](O)[C@@H](C)/C=C(\C)[C@H](OC(N)=O)[C@@H](OC)/C=C\C=C(/C)C(=O)NC(=CC1=O)C2=O [17-AAG]; details: top dose 1 µM
Description: as §1

CCT018159 = compound: CCc1cc(-c2n[nH]c(C)c2-c2ccc3c(c2)OCCO3)c(O)cc1O [CCT018159]; details: top dose 10 µM; top dose inferred
Description: as §1

BIX02189 = compound: CN(C)Cc1cccc(N=C(c2ccccc2)c2c(O)[nH]c3cc(C(=O)N(C)C)ccc23)c1 [BIX02189]; details: top dose 20 µM; top dose inferred
Description: as §1

Dimethyloxalylglycine = compound: COC(=O)CNC(=O)C(=O)OC [Dimethyloxalylglycine]; details: top dose 4000 µM; top dose inferred
Description: as §1

Doxorubicin = compound: COc1cccc2c1C(=O)c1c(O)c3c(c(O)c1C2=O)C[C@@](O)(C(=O)CO)C[C@@H]3O[C@H]1C[C@H](N)[C@H](O)[C@H](C)O1 [Doxorubicin]; details: top dose 1.024 µM
Description: as §1

OSI-027 = compound: COc1cccc2cc(-c3nc([C@H]4CC[C@H](C(=O)O)CC4)n4ncnc(N)c34)[nH]c12 [OSI-027]; details: top dose 20 µM
Description: as §1

Vismodegib = compound: CS(=O)(=O)c1ccc(C(=O)Nc2ccc(Cl)c(-c3ccccn3)c2)c(Cl)c1 [Vismodegib]; details: top dose 10 µM; top dose inferred
Description: as §1

VX-11e = compound: Cc1cnc(Nc2ccc(F)cc2Cl)nc1-c1c[nH]c(C(=O)N[C@H](CO)c2cccc(Cl)c2)c1 [VX-11e]; details: top dose 5.12 µM; top dose inferred
Description: as §1

TG101348 = compound: Cc1cnc(Nc2ccc(OCCN3CCCC3)cc2)nc1Nc1cccc(S(=O)(=O)NC(C)(C)C)c1 [TG101348]; details: top dose 10.24 µM
Description: as §1

UNC1215 = compound: O=C(c1ccc(C(=O)N2CCC(N3CCCC3)CC2)c(Nc2ccccc2)c1)N1CCC(N2CCCC2)CC1 [UNC1215]; details: top dose 1 µM; top dose inferred
Description: as §1

Cell Line	AUC (BMX-IN-1 (QL-XII-61))	IC50 (BMX-IN-1 (QL-XII-61)) [µM]	AUC (17-AAG)	IC50 (17-AAG) [µM]	AUC (CCT018159)	IC50 (CCT018159) [µM]	AUC (BIX02189)	IC50 (BIX02189) [µM]	AUC (Dimethyloxalylglycine)	IC50 (Dimethyloxalylglycine) [µM]	AUC (Doxorubicin)	IC50 (Doxorubicin) [µM]	AUC (OSI-027)	IC50 (OSI-027) [µM]	AUC (Vismodegib)	IC50 (Vismodegib) [µM]	AUC (VX-11e)	IC50 (VX-11e) [µM]	AUC (TG101348)	IC50 (TG101348) [µM]	AUC (UNC1215)	IC50 (UNC1215) [µM]
LS-1034 (large intestine, adherent)	0.981	> 10	0.919	> 1	0.972	> 10	0.944	> 20	0.833	2950	0.698	0.246	0.55	1.74	0.942	> 10	0.681	1.09	0.807	5.94	0.978	> 1
JJN-3 (haematopoietic neoplasm, suspension)	0.928	> 10	0.904	0.904	0.916	> 10	0.959	> 20	0.289	72.5	0.814	0.436	0.209	0.216	0.942	> 10	0.938	> 5.12	0.625	1.32	0.991	> 1
SR (lymphoid neoplasm, suspension)	0.827	5.29	0.53	0.0747	0.863	7.26	0.783	7.53	0.069	< 15.6	0.303	0.0191	0.087	< 0.0781	0.973	> 10	0.901	> 5.12	0.436	0.435	0.987	> 1
CAL-62 (thyroid, adherent)	0.89	> 10	0.665	0.175	0.857	7.52	0.983	> 20	0.682	782	0.413	0.0375	0.496	1.22	0.988	> 10	0.921	> 5.12	0.917	> 10.2	0.983	> 1
HT-1197 (bladder, adherent)	0.982	> 10	0.877	> 1	0.887	> 10	0.977	> 20	0.534		0.692	0.246	0.855	> 20	0.985	> 10	0.96	> 5.12	0.959	> 10.2	0.983	> 1
G-401 (kidney, adherent)	0.952	> 10	0.6	0.121	0.892	> 10	0.915	> 20	0.697	953	0.372	0.0273	0.724	5.82	0.954	> 10	0.801	2.8	0.831	7.4	0.982	> 1
LB1047-RCC (kidney, adherent)	0.943	> 10	0.493	0.0595	0.905	> 10	0.926	> 20	0.282	55.3	0.42	0.0375	0.453	0.912	0.982	> 10	0.944	> 5.12	0.849	9.22	0.977	> 1
KMRC-20 (kidney, adherent)	0.982	> 10	0.675	0.194	0.939	> 10	0.987	> 20	0.704	952	0.873	1.01	0.959	> 20	0.976	> 10	0.989	> 5.12	0.932	> 10.2	0.988	> 1
SW948 (large intestine, adherent)	0.98	> 10	0.951	> 1	0.982	> 10	0.96	> 20	0.835	> 4000	0.964	> 1.02	0.654	4.09	0.981	> 10	0.787	3.47	0.834	> 10.2	0.98	> 1
EW-1 (Ewing sarcoma, semi-adherent)	0.972	> 10	0.98	> 1	0.978	> 10	0.884	18.7	0.742	1150	0.502	0.0647	0.151	0.118	0.985	> 10	0.917	> 5.12	0.503	0.652	0.987	> 1
NCI-H1975 (lung adenocarcinoma, adherent)	0.98	> 10	0.441	0.0422	0.786	5	0.952	> 20	0.303	63.8	0.496	0.0622	0.719	5.77	0.969	> 10	0.917	> 5.12	0.779	4.81	0.981	> 1
NCI-H2141 (small cell lung carcinoma, suspension)	0.908	> 10	0.978	> 1	0.982	> 10	0.982	> 20	0.571	389	0.827	0.602	0.707	4.7	0.991	> 10	0.99	> 5.12	0.895	> 10.2	0.973	> 1
Hs-578-T (breast, adherent)	0.982	> 10	0.541	0.0815	0.955	> 10	0.98	> 20	0.794	1970	0.921	> 1.02	0.987	> 20	0.979	> 10	0.987	> 5.12	0.956	> 10.2	0.985	> 1
KYSE-50 (oesophagus, adherent)	0.989	> 10	0.959	> 1	0.876	8.42	0.96	> 20	0.513	271	0.553	0.0879	0.515	1.37	0.979	> 10	0.945	> 5.12	0.759	3.3	0.989	> 1
NCI-H2110 (non-small cell lung carcinoma, adherent)	0.892	> 10	0.533	0.0771	0.959	> 10	0.823	12.1	0.383	118	0.198	0.00789	0.722	5.42	0.973	> 10	0.71	1.28	0.887	> 10.2	0.985	> 1
OVKATE (ovary, adherent)	0.972	> 10	0.855	> 1	0.961	> 10	0.817	> 20	0.653	883	0.914	> 1.02	0.837	> 20	0.979	> 10	0.826	> 5.12	0.862	> 10.2	0.977	> 1
EW-16 (Ewing sarcoma, adherent)	0.873	> 10	0.861	0.913	0.915	> 10	0.913	> 20	0.571	395	0.14	0.00444	0.303	0.34	0.933	> 10	0.972	> 5.12	0.793	4.93	0.981	> 1
RC-K8 (B-cell lymphoma, suspension)	0.992	> 10	0.993	> 1	0.993	> 10	0.975	> 20	0.943	> 4000	0.867	0.728	0.891	17.9	0.992	> 10	0.988	> 5.12	0.977	> 10.2	0.981	> 1
PCI-4B (head and neck, adherent)	0.964	> 10	0.488	0.058	0.829	5.81	0.94	> 20	0.592	442	0.38	0.0305	0.257	0.262	0.938	> 10	0.936	> 5.12	0.769	3.66	0.986	> 1
NCI-H1770 (non-small cell lung carcinoma, suspension)	0.86	6.76	0.846	0.599	0.973	> 10	0.988	> 20	0.884	3390	0.611	0.124	0.974	> 20	0.992	> 10	0.758	1.58	0.917	> 10.2	0.989	> 1
NCI-H1304 (small cell lung carcinoma, suspension)	0.907	> 10	0.963	> 1	0.929	> 10	0.987	> 20	0.628	580	0.748	0.352	0.713	5.29	0.972	> 10	0.961	> 5.12	0.87	> 10.2	0.973	> 1

A lower IC50 marks a more sensitive line; where the fit passes the top or lowest dose, that dose stands as a limit. AUC sums up the same curve from the lowest dose to the 256-fold higher top dose; it is 1 without any effect and falls as sensitivity rises. For some assays here: Any top dose called inferred was calculated from the reported fits.
